Results as given in the supplement of paper PMC11369174, “Proteome-scale characterisation of motif-based interactome rewiring by disease mutations” (Molecular Systems Biology, 2024).
Some of the results follow. The data scatter; read single values as rough.

T1: TERF1_TRF__P54274_58_268
T1 chain: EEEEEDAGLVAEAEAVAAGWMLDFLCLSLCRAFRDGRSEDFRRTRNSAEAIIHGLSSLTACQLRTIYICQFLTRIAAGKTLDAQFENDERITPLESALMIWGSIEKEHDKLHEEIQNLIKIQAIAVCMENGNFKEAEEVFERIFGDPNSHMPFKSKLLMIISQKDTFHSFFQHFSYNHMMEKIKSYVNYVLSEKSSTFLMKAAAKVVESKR

T2: SPOP_MATH__O43791_19_176
T2 chain: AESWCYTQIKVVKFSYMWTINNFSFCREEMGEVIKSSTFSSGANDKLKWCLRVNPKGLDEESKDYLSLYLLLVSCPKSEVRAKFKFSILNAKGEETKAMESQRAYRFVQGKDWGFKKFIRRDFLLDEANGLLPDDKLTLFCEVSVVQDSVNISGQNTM


Biological target: T1, TERF1_TRF__P54274_58_268
Experiment: mutation enrichment score (mutant vs wild-type peptide binding to bait); baits are purified protein domains named by gene / domain / UniProt id / residues; peptides come from disordered regions of human proteins; higher = mutation enhances binding relative to wild type
Conditions: number of wild-type / mutant comparisons summed (bounds the score): 6; paper call: diminished; wild-type window: …

| Binder | mutation enrichment score |
| --- | --- |
| GGEFWGELEVQRVKFLNYLSQNFYTLRFLALFLAFAINFIL [R4558Q R4558Q] | -6 |
| GGEFWGELEVQRVKFLNYLSWNFYTLRFLALFLAFAINFIL [R4558W R4558W] | -6 |

biological target: Src_SH3__P12931_87_144; experiment: as above; conditions: number of wild-type / mutant comparisons summed (bounds the score): 6; paper call: no_effect; wild-type window: …

| Binder | mutation enrichment score |
| --- | --- |
| GPEDDLDLGPFSLPELPLQTEDAADGEAEPVEESLAPPEEM [K2146E K2146E] | -5 |
| GPEDDLDLGPFSLPELPLQTQDAADGEAEPVEESLAPPEEM [K2146Q K2146Q] | -3.2 |
| HSLSQNSSRLTTPRNSLTLPPIPAGISNMAVGDMSSMLTSL [S1555P S1555P] | 4 |
| SLLHSLSQNSSRLTTPRNSLALPSIPAGISNMAVGDMSSML [T1552A T1552A] | -2 |
| APQPPFAQHPFVPGGPPPITLPTCPSTSTPPAGPGTSAQPP [P1049L P1049L] | 3 |
| HLPEVQLPKVPEMKLPKMPEVAVPEVRLPEVQLPKVSEMKL [M673V M673V] | -1.7 |

Biological target: T1, TERF1_TRF__P54274_58_268
Experiment: as above
Conditions: number of wild-type / mutant comparisons summed (bounds the score): 6; paper call: no_effect; wild-type window: …

| Binder | mutation enrichment score |
| --- | --- |
| RWKNVKVNFDNVGFGYLSLLLVATFKGWMDIMYAAVDSRNV [Q1427L Q1427L] | 0 |
| RWKNVKVNFDNVGFGYLSLLPVATFKGWMDIMYAAVDSRNV [Q1427P Q1427P] | 3 |
| PRWHMNDFFHSFLIVFRVLCREWIETMWDCMEVAGQAMCLT [G950R G950R] | 0 |
| LPRWHMNDFFHSFLIVFRVLYGEWIETMWDCMEVAGQAMCL [C949Y C949Y] | 0 |
| EVEELSEPVLGDVRESTAFSGSLLPVKPVEIEIETPEQAKT [R155G R155G] | 2 |
| CSTQTDFNELDLETLAPYIPTDGEDFQLSPICPEERLLAEN [M535T M535T] | -4 |
| CSTQTDFNELDLETLAPYIPVDGEDFQLSPICPEERLLAEN [M535V M535V] | -4 |
| TQTDFNELDLETLAPYIPMDREDFQLSPICPEERLLAENPQ [G537R G537R] | -4 |
| TQTDFNELDLETLAPYIPMDWEDFQLSPICPEERLLAENPQ [G537W G537W] | -4 |
| QCSTQTDFNELDLETLAPYILMDGEDFQLSPICPEERLLAE [P534L P534L] | 3.3 |

Biological target: T2, SPOP_MATH__O43791_19_176
Experiment: as above
Conditions: number of wild-type / mutant comparisons summed (bounds the score): 12; paper call: no_effect; wild-type window: …

| Binder | mutation enrichment score |
| --- | --- |
| KDANSDFSSYADSLWWGTITSTTIGYGDKTPHTWLGRVLAA [L281S L281S] | 4 |
| VVSNNSSAHGSQRTSGPESSVKVTSSIPVFDLQDGGRKICP [M358V M358V] | 5 |
| TTLHVPSQDPAGIQHLQPAHQLSASPTVSSSSLVLYQSSDS [R583Q R583Q] | -3 |
| IRKTEELLKKAKGNTEEDGVSSTSPMEVLDRLIQQGADAHS [P641S P641S] | 5 |

Same assay, conditions: number of wild-type / mutant comparisons summed (bounds the score): 6; paper call: no_effect; wild-type window: …

| Binder | mutation enrichment score |
| --- | --- |
| AGTYKCIATNKTGQNSFSLEISVVAKEVKKAPVILEKLQNC [L1161I L1161I] | -2 |
| VDETGNNPSVSLKLEESKATTSSNPSSPAPDWYKDFVTDAD [S1990T S1990T] | -2 |
| GIQHLQPAHRLSASPTVSSSILVLYQSSDSSNGQSHLLPSN [S594I S594I] | -4 |
| SLYQSSCQGQLHRSVSWADSTVVMEEGSPGEVPVLVEPPGL [A1297T A1297T] | 5 |
| AGLAQSLASQSASISGVKQLSPIQLPQSSSGNTIIPSNSGS [P317S P317S] | 4 |
| TTLHVPSQDPAGIQHLQPAHGLSASPTVSSSSLVLYQSSDS [R583G R583G] | -0.19 |
| ATTLHVPSQDPAGIQHLQPARRLSASPTVSSSSLVLYQSSD [H582R H582R] | -3 |
| DLPMGTEGALSPGVSTSGISISQGEQSNPAQSPFSPHTSPH [S668I S668I] | -1.7 |
| GYISVVDTLKVVTEEVTTTTITITEKHKLNVPETMTEVLDV [T825I T825I] | -3.9 |
| LSPQGYASPVSQSPQTSSKQNSWNSLVLADSHGDIITA [D425N D425N] | 1 |
| GCYIHIYLTVRNPNIVSSSSNTRIAKRMAMLIFTDFLCMAP [D567N D567N] | -2.8 |

Biological target: T1, TERF1_TRF__P54274_58_268
Experiment: as above
Conditions: number of wild-type / mutant comparisons summed (bounds the score): 6; paper call: enhanced; wild-type window: …

| Binder | mutation enrichment score |
| --- | --- |
| PECPGPQLNTGTQLVLQHVQELLVKRFQHTIRSHKDFLAQI [A1357E A1357E] | 6 |

Same assay, conditions: number of wild-type / mutant comparisons summed (bounds the score): 12; paper call: diminished; wild-type window: …

| Binder | mutation enrichment score |
| --- | --- |
| PKKEEAGGEFWGELEVQRVKILNYLSRNFYTLRFLALFLAF [F4552I F4552I] | -11 |
| DFNELDLETLAPYIPMDGEDLQLSPICPEERLLAENPQSTP [F540L F540L] | -7 |

biological target: SNX9_SH3_1_Q9Y5X1_3_61; experiment: as above; conditions: number of wild-type / mutant comparisons summed (bounds the score): 12; paper call: no_effect; wild-type window: …
Sequence (chain, as listed by the source): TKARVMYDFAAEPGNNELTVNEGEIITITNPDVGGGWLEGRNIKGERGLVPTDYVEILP

| Binder | mutation enrichment score |
| --- | --- |
| LGSQRDLTHSDSESSLHMSDCQRVAPKPPQMSRAADEALNA [R530C R530C] | -0.14 |
| LGSQRDLTHSDSESSLHMSDGQRVAPKPPQMSRAADEALNA [R530G R530G] | 3 |

same assay, conditions: number of wild-type / mutant comparisons summed (bounds the score): 6; paper call: diminished; wild-type window: …

| Binder | mutation enrichment score |
| --- | --- |
| LYKDPCAFQRGPAPEFSASPAACLYMGRQPPPPPPHPFPGA [P33A P33A] | -6 |
| LYKDPCAFQRGPAPEFSASPSACLYMGRQPPPPPPHPFPGA [P33S P33S] | -6 |

same assay, conditions: number of wild-type / mutant comparisons summed (bounds the score): 6; paper call: no_effect; wild-type window: …

| Binder | mutation enrichment score |
| --- | --- |
| LYKDPCAFQRGPAPEFSASPTACLYMGRQPPPPPPHPFPGA [P33T P33T] | -3.9 |
| AYGAPLTSPEPSQPPCAVCIWHRDAPRASSPPRYLQHDPFP [G1019W G1019W] | 3 |
| QAESQINKQTKVGDIARKTDGPALHLRIPPQPGALGSPPPA [R2099G R2099G] | -1.3 |
| QPILDSFPKDVDLSQPRKGRNPPAVPKALVPPPRLPTKRKA [K114N K114N] | 4.5 |

biological target: USP7_MATH-TRAF__Q93009_53_206; experiment: as above; conditions: number of wild-type / mutant comparisons summed (bounds the score): 5; paper call: no_effect; wild-type window: …
Sequence (chain, as listed by the source): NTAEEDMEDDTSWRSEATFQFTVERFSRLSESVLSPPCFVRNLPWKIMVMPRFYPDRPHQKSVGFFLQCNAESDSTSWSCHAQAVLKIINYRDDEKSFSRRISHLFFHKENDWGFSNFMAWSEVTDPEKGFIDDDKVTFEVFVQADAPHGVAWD

| Binder | mutation enrichment score |
| --- | --- |
| TTLHVPSQDPAGIQHLQPAHGLSASPTVSSSSLVLYQSSDS [R583G R583G] | 1 |

same assay, conditions: number of wild-type / mutant comparisons summed (bounds the score): 10; paper call: no_effect; wild-type window: …

| Binder | mutation enrichment score |
| --- | --- |
| DLPMGTEGALSPGVSTSGISISQGEQSNPAQSPFSPHTSPH [S668I S668I] | 1 |

biological target: Src_SH3__P12931_87_144; experiment: as above; conditions: number of wild-type / mutant comparisons summed (bounds the score): 12; paper call: no_effect; wild-type window: …

| Binder | mutation enrichment score |
| --- | --- |
| SLLHSLSQNSSRLTTPRNSLSLPSIPAGISNMAVGDMSSML [T1552S T1552S] | -1 |

same assay, conditions: number of wild-type / mutant comparisons summed (bounds the score): 12; paper call: diminished; wild-type window: …

| Binder | mutation enrichment score |
| --- | --- |
| TLQKSKRPIPISTTAPPVQTSLPVIPHQKDPALDTNGSLVA [P99S P99S] | -6 |
